Test results reported in PubChem BioAssay AID2147 (National Center for Advancing Translational Sciences (NCATS), 2009).
The whole screen tested about 230,000 compounds, of which about 3,600 (1.6%) were called active. Inconclusive results, whose numbers are uncertain, are shown with a selection of clear calls. Calls follow the shape of the dose curve; as a rule, active = well fitted inhibition curve with a large enough effect (not every such curve was filed as active); inconclusive = small, poorly fitted or top-dose-only effect, or another doubt; inactive = no such curve, though single readings can be large or run the other way. Potencies of inconclusive entries are doubtful fits and often do not repeat.

What follows are compounds tested against Lysine-specific demethylase 4E (Homo sapiens) (UniProt B2RXH2) (assay: qHTS Assay for Inhibitors of Human Jumonji Domain Containing 2E (JMJD2E)). Settings: JMJD2E catalytic domain, FDH-coupled NADH fluorescence (FDH is formaldehyde dehydrogenase); series mostly up to 57.1 µM; activity change, negative = inhibition: at the top concentration.
Also: nearly all actives have a fitted effect of over 50% in size.
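For activity change, negative = inhibition in this document: 0% = wells with enzyme and -100% = buffer wells without enzyme.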
Potency is read from the fitted curve at half-maximal effect; tags tell the direction and shape of the fitted curve.

UniProt B2RXH2, sequence (B2RXH2 whole entry, looked up, the tested form may be a part): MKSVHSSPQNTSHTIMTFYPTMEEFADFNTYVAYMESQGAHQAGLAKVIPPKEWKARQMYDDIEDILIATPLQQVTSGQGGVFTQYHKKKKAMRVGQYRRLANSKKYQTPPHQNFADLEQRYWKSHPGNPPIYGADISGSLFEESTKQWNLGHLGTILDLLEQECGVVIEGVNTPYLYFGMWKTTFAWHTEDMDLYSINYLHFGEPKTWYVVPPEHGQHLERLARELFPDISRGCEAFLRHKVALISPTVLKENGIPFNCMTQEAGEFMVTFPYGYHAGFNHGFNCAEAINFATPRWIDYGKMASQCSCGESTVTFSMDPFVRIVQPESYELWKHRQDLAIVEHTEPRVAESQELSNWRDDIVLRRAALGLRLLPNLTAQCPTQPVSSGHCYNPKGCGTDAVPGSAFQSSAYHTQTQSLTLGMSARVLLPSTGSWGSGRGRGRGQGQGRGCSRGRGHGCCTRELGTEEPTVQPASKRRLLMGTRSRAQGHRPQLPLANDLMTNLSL

SMILES	Potency	activity change, negative = inhibition
Oc1cccc(/C=N/NC(=S)NCCN2CCOCC2)c1O	active: 25.1 µM	–
CCc1nc2c(n1O)CCc1nonc1-2	–	inactive: -1.49%
COC(=O)COc1cccc(NS(=O)(=O)c2ccc(NC(C)=O)cc2)c1	–	inactive: -1.67%
Cc1cc(C)n2c(SCc3nnc(-c4cccs4)o3)nnc2n1	inconclusive: 28.2 µM [inhibitor, partial curve]	–
Cc1noc(NS(=O)(=O)c2ccc(NC(=O)COc3ccc(Cl)cc3Cl)cc2)c1C	–	inactive: 4.03%
CCOC(=O)c1ccc(Nc2ncnc3c2cnn3C)cc1	inconclusive: 39.8 µM [inhibitor, single point]	–
Cn1c(-c2cccc(Br)c2)cnc1NCc1cccnc1	inconclusive: 35.5 µM [inhibitor, single point]	–
CCOC(=O)c1cnc2ccccc2c1NCc1ccco1	inconclusive: 25.1 µM [inhibitor, partial curve]	–
CCOCCCNC(=O)c1cc(Sc2nnc(C)s2)nc2ccccc12	inconclusive: 39.8 µM [inhibitor, single point]	–
CC1(C)Cc2c(c(-c3ccccc3)[nH]c(=O)c2C#N)CS1	–	inactive: -22.7%
N[C@H](C(=O)O)c1nn[nH]n1	active: 20 µM	–
CCOC(=O)c1cccc(NC(=O)CCS(=O)(=O)c2ccc(Br)s2)c1	–	inactive: -4.53%
COC(=O)c1ccc(C(=O)OC)c(NC(=S)N2CCCCC2)c1	inconclusive: 31.6 µM [inhibitor, partial curve]	–
COc1ccc(C(=O)NCC(=O)NCC(=O)OCC(=O)c2cccs2)cc1	inconclusive: 39.8 µM [inhibitor, single point]	–
CC(=O)c1ccccc1Oc1nc(CN2CCOCC2)nc2scc(-c3cccs3)c12	inconclusive: 39.8 µM [inhibitor, single point]	–
COc1ccc(N(C(=O)c2ccc(S(=O)(=O)N3CCOCC3)cc2)C2C=CS(=O)(=O)C2)cc1 (stereo not drawn)	–	inactive: -2.08%
CCCOc1ccc(-c2nc(OC)c3ccccc3n2)cc1	inconclusive: 25.1 µM [inhibitor, partial curve]	–
Cc1cc2oc(=O)cc(Cn3ccnc3)c2cc1C	inconclusive: 39.8 µM [inhibitor, single point]	–
COCCCn1cnc2c(c1=O)c1nc3ccccc3nc1n2-c1ccccc1	inconclusive: 8.91 µM [inhibitor, partial curve]	–
O=C(Nc1ccc(Oc2ccccc2)cc1)c1cnc2n(c1=O)CCS2	inconclusive: 39.8 µM [inhibitor, single point]	–
Cc1n[nH]c(=S)n1Cc1ccccc1	inconclusive: 8.91 µM [inhibitor, single point]	–
CC(C)c1onc(C(=O)NC2CCCCC2)c1[N+](=O)[O-]	–	inactive: -3.27%
O=C(O)Cc1c[nH]c2ccc(O)cc12	–	inactive: -23.1%
Cc1cccc(-c2n[nH]c(=S)n2/N=C/c2ccco2)c1	–	inactive: -1.9%
COc1ccccc1NC(=O)c1cc2c(s1)-c1ccccc1S(=O)(=O)C2	inconclusive: 39.8 µM [inhibitor, single point]	–

SMILES	Potency	activity change, negative = inhibition
Cc1ccc(-c2csc(NC(=O)/C=C/c3cccs3)n2)cc1C	inconclusive: 31.6 µM [inhibitor, single point]	–
COc1cccc2c(=O)n(CC(=O)N3CCCCC3)ccc12	inconclusive: 31.6 µM [inhibitor, single point]	–
CC(=O)N1[C@H](C)C=C[C@]1(Cc1ccccc1)C(=O)NCc1cc(F)cc(C(F)(F)F)c1	inactive	–
CN(CCO)c1nc(N)c2c(N)nc3c(c2c1C#N)CC(=O)N3Cc1cccs1	inconclusive: 14.1 µM [inhibitor, partial curve]	–
O=C(NNc1nc(-c2ccccc2)cs1)c1ccco1	inconclusive: 15.8 µM [inhibitor, partial curve]	–
O=C(O)C(Cc1c[nH]c2ccccc12)N1C(=O)C2C3c4ccccc4C(c4ccccc43)[C@@H]2C1=O (stereo partly drawn)	–	inactive: -1.6%
CCC(CC)NC(=O)COc1ccc(OC)cc1C=O	inconclusive: 35.5 µM [inhibitor, single point]	–
c1csc(-c2nnc(N3CCCCCC3)c3ccccc23)c1	inconclusive: 35.5 µM [inhibitor, single point]	–
COc1ccc(C(=O)Nc2ccc(OCc3ccccc3)cc2)cc1[N+](=O)[O-]	–	inactive: 0.308%
Cc1ccc(Cl)cc1Nc1nc(-c2sc(NC(=O)c3cccc(Cl)c3)nc2C)cs1	inconclusive: 28.2 µM [inhibitor, single point]	–
C=C1C(=O)C23C(O)C1CCC2[C@]12COC3(O)C(O)C1C(C)(C)CC[C@H]2O (stereo partly drawn)	inconclusive: 39.8 µM [inhibitor, single point]	–
CCOc1ccc(S(=O)(=O)Nc2ccc(C(=O)N/N=C/c3c(C)nn(-c4ccccc4)c3N3CCCC3)cc2)cc1	inconclusive: 28.2 µM [inhibitor, partial curve]	–
COc1cccc2cc(NC(=O)C3CCCCC3)c(=O)oc12	inconclusive: 11.2 µM [inhibitor, partial curve]	–
CC(C)Cn1c(-c2csc3c2CCCC3)n[nH]c1=S	inconclusive: 25.1 µM [inhibitor, single point]	–
Cc1ccc(-n2cnc3c(sc4nccc(N(C)C)c43)c2=O)cc1	inconclusive: 39.8 µM [inhibitor, single point]	–
O=C(NC1CC1)c1nc2c(nnn2Cc2ccccc2Cl)c(=O)[nH]1	–	inactive: 8.31%
CCOC(=O)c1ccc(N2C(=O)CC(N(C)CCc3ccc(OC)c(OC)c3)C2=O)cc1 (stereo not drawn)	–	inactive: 0.393%
C=CCn1c(SC2CCOC2=O)nc2scc(C3CC3)c2c1=O (stereo not drawn)	–	inactive: -6.64%
O=C1NCCN(Cc2ccc(-c3ccccc3)cc2)C1CC(=O)N1CCN(CCO)CC1 (stereo not drawn)	inconclusive: 39.8 µM [inhibitor, single point]	–
COc1cc(OC)c(OC)cc1/C=N/NC(=O)c1ccc2nc[nH]c2c1	inconclusive: 28.2 µM [inhibitor, single point]	–
COC(=O)c1sccc1-c1ccc(/C=N/OCc2c(Cl)cccc2Cl)o1	inconclusive: 17.8 µM [inhibitor, partial curve]	–
CCOC(=O)c1c(-c2ccc(F)cc2)csc1NC(=O)CCN1CCOCC1	active: 25.1 µM	–
Cc1nn(C2CCS(=O)(=O)C2)c(Cl)c1/C=C/C(=O)OCC(=O)Nc1ccc2c(c1)OCO2 (stereo not drawn)	–	inactive: 1.42%
CC(C)COC(=O)c1cc(=O)[nH]c2ccccc12	inconclusive: 28.2 µM [inhibitor, single point]	–
O=c1c(-c2ccc3c(c2)OCCO3)coc2cc(O)cc(O)c12	inconclusive: 39.8 µM [inhibitor, single point]	–

SMILES	Potency	activity change, negative = inhibition
O=C(Nc1ccc(NC(=O)c2cccs2)cc1)c1ccco1	inconclusive: 39.8 µM [inhibitor, single point]	–
COc1ccccc1N=Cc1c(C)[nH]n(-c2ccc(C)cc2C)c1=O	inconclusive: 39.8 µM [inhibitor, single point]	–
Cc1ccc(S(=O)(=O)c2cc(O)ccc2O)cc1C	–	inactive: -0.344%
COc1cccc(OCC(=O)O/N=C(\N)c2ccc(OC)c(OC)c2)c1	–	inactive: -1.9%
CCN(CC)S(=O)(=O)c1ccc(NC(=O)COC(=O)c2ccc(NC(=O)CC#N)cc2)cc1	inconclusive: 3.16 µM [inhibitor, partial curve]	–
Cc1nn(C)c(C)c1N1C(=O)c2cccc3c(N)ccc(c23)C1=O	–	inactive: -6.94%
CCOC(=O)CCCNC(=O)N1CCc2nc(-c3ccccc3)c3c(c2C1)CO[C@@H](C)C3	–	inactive: 9.33% [at 11.4 µM]
CCN(CC)CCN1CCn2c3c(c4cc(C)ccc42)CCCC31 (stereo not drawn)	inconclusive: 22.4 µM [inhibitor, partial curve]	–
CCC(=O)NNC(=O)c1c(O)c2ccccc2[nH]c1=O	inconclusive: 31.6 µM [inhibitor, single point]	–
O=C(CCCC(=O)N1CCN(c2ccc([N+](=O)[O-])cc2)CC1)c1ccccc1	–	inactive: 0.636%
CNc1nc(-c2ccccn2)nnc1-c1ccccc1	inconclusive: 35.5 µM [inhibitor, single point]	–
COc1ccc(-c2[nH]n(-c3ccc([N+](=O)[O-])cc3)c(=O)c2C=NCCN2CCNCC2)cc1	–	inactive: -26.7%
COC1C=CC(CNC(=O)c2cc3c(=O)n4cccc(C)c4nc3n2C)(OC)O1 (stereo not drawn)	inconclusive: 8.91 µM [inhibitor, partial curve]	–
O=C(N/N=C/c1cccnc1)c1ccc2c(c1)OCCO2	–	inactive: -1.88%
N#Cc1sc2nc(C3CC3)cc(-c3ccccc3)c2c1N	inconclusive: 35.5 µM [inhibitor, partial curve]	–
COc1ccccc1CNCC(=O)N1CC(=O)Nc2ccccc21	inconclusive: 31.6 µM [inhibitor, single point]	–
O=C(Oc1ccc2ccc(=O)oc2c1)N1CCOCC1	inconclusive: 28.2 µM [inhibitor, partial curve]	–
O=C(Nc1ccc(Cl)cc1)N1N=CCC1c1ccccc1 (stereo not drawn)	–	inactive: 2.6%
OCCNc1ncnc2c1c(-c1ccccc1)c(-c1ccccc1)n2Cc1ccco1	inconclusive: 31.6 µM [inhibitor, partial curve]	–
COc1cccc(-c2nnc(-c3ccccc3NC(=O)c3ccc(C(C)(C)C)cc3)o2)c1	inconclusive: 39.8 µM [inhibitor, single point]	–
CCC(C)c1ccc2oc(-c3ccc(NC(=O)Cn4cnc5c(=O)n(C)c(=O)n(C)c54)cc3)nc2c1 (stereo not drawn)	inconclusive: 3.16 µM [inhibitor, partial curve]	–
O=C(NC1CC1)c1ccc2c(c1)ncn2C1CCCC1	–	inactive: 8.27%
O=C(Nc1nccs1)c1ccc(COc2ccccc2Cl)o1	inconclusive: 22.4 µM [inhibitor, single point]	–
